Measured values published in the supplement of paper PMC12423691.
The other results are listed elsewhere or left out. Binding of human transcription factors and regulators to the viral nucleoprotein by AlphaScreen, crude cell-free proteins, amounts not normalised, one pass. Fold of the Venus control; higher = more signal. No active / inactive call. Single-pass screen; sequences are the whole Swiss-Prot entries looked up by name.

B1: PSMD10, O75832 (protein)
chain: MEGCVSNLMVCNLAYSGKLEELKESILADKSLATRTDQDSRTALHWACSAGHTEIVEFLLQLGVPVNDKDDAGWSPLHIAASAGRDEIVKALLGKGAQVNAVNQNGCTPLHYAASKNRHEIAVMLLEGGANPDAKDHYEATAMHRAAAKGNLKMIHILLYYKASTNIQDTEGNTPLHLACDEERVEEAKLLVSQGASIYIENKEEKTPLQVAKGGLGLILKRMVEG
B2: ZNF202, O95125 (protein)
chain: MATAVEPEDQDLWEEEGILMVKLEDDFTCRPESVLQRDDPVLETSHQNFRRFRYQEAASPREALIRLRELCHQWLRPERRTKEQILELLVLEQFLTVLPGELQSWVRGQRPESGEEAVTLVEGLQKQPRRPRRWVTVHVHGQEVLSEETVHLGVEPESPNELQDPVQSSTPEQSPEETTQSPDLGAPAEQRPHQEEELQTLQESEVPVPEDPDLPAERSSGDSEMVALLTALSQGLVTFKDVAVCFSQDQWSDLDPTQKEFYGEYVLEEDCGIVVSLSFPIPRPDEISQVREEEPWVPDIQEPQETQEPEILSFTYTGDRSKDEEECLEQEDLSLEDIHRPVLGEPEIHQTPDWEIVFEDNPGRLNERRFGTNISQVNSFVNLRETTPVHPLLGRHHDCSVCGKSFTCNSHLVRHLRTHTGEKPYKCMECGKSYTRSSHLARHQKVHKMNAPYKYPLNRKNLEETSPVTQAERTPSVEKPYRCDDCGKHFRWTSDLVRHQRTHTGEKPFFCTICGKSFSQKSVLTTHQRIHLGGKPYLCGECGEDFSEHRRYLAHRKTHAAEELYLCSECGRCFTHSAAFAKHLRGHASVRPCRCNECGKSFSRRDHLVRHQRTHTGEKPFTCPTCGKSFSRGYHLIRHQRTHSEKTS
B3: SIX6, O95475 (protein)
chain: MFQLPILNFSPQQVAGVCETLEESGDVERLGRFLWSLPVAPAACEALNKNESVLRARAIVAFHGGNYRELYHILENHKFTKESHAKLQALWLEAHYQEAEKLRGRPLGPVDKYRVRKKFPLPRTIWDGEQKTHCFKERTRHLLREWYLQDPYPNPSKKRELAQATGLTPTQVGNWFKNRRQRDRAAAAKNRLQQQVLSQGSGRALRAEGDGTPEVLGVATSPAASLSSKAATSAISITSSDSECDI
B4: ASCL1, P50553 (protein)
chain: MESSAKMESGGAGQQPQPQPQQPFLPPAACFFATAAAAAAAAAAAAAQSAQQQQQQQQQQQQAPQLRPAADGQPSGGGHKSAPKQVKRQRSSSPELMRCKRRLNFSGFGYSLPQQQPAAVARRNERERNRVKLVNLGFATLREHVPNGAANKKMSKVETLRSAVEYIRALQQLLDEHDAVSAAFQAGVLSPTISPNYSNDLNSMAGSPVSSYSSDEGSYDPLSPEEQELLDFTNWF
B5: ZC3H8, Q8N5P1 (protein)
chain: MDFENLFSKPPNPALGKTATDSDERIDDEIDTEVEETQEEKIKLECEQIPKKFRHSAISPKSSLHRKSRSKDYDVYSDNDICSQESEDNFAKELQQYIQAREMANAAQPEESTKKEGVKDTPQAAKQKNKNLKAGHKNGKQKKMKRKWPGPGNKGSNALLRNSGSQEEDGKPKEKQQHLSQAFINQHTVERKGKQICKYFLERKCIKGDQCKFDHDAEIEKKKEMCKFYVQGYCTRGENCLYLHNEYPCKFYHTGTKCYQGEYCKFSHAPLTPETQELLAKVLDTEKKSCK
B6: DMRT2, Q9Y5R5 (protein)
chain: MADPQAGSAAGDWEIDVESLELEEDVCGAPRSTPPGPSPPPADGDCEDDEDDDGVDEDAEEEGDGEEAGASPGMPGQPEQRGGPQPRPPLAPQASPAGTGPRERCTPAGGGAEPRKLSRTPKCARCRNHGVVSCLKGHKRFCRWRDCQCANCLLVVERQRVMAAQVALRRQQATEDKKGLSGKQNNFERKAVYQRQVRAPSLLAKSILEGYRPIPAETYVGGTFPLPPPVSDRMRKRRAFADKELENIMLEREYKEREMLETSQAAALFLPNRMVPGPDYNSYKSAYSPSPVEPPSKDFCNFLPTCLDLTMQYSGSGNMELISSNVSVATTYRQYPLSSRFLVWPKCGPISDTLLYQQCLLNATTSVQALKPGASWDLKGARVQDGLSAEQDMMPSKLEGSLVLPHTPEIQTTRSDLQGHQAVPERSAFSPPRRNFSPIVDTDSLAAQGHVLTKISKENTRHPLPLRHNPFHSLFQQTLTDKSGPELKTPFVKEAFEETPKKHRECLVKDNQKYTFTIDRCAKDLFVAKQVGTKLSVNEPLSFSVESILKRPSSAITRVSQ
B7: TNFRSF4, P43489 (protein)
chain: MCVGARRLGRGPCAALLLLGLGLSTVTGLHCVGDTYPSNDRCCHECRPGNGMVSRCSRSQNTVCRPCGPGFYNDVVSSKPCKPCTWCNLRSGSERKQLCTATQDTVCRCRAGTQPLDSYKPGVDCAPCPPGHFSPGDNQACKPWTNCTLAGKHTLQPASNSSDAICEDRDPPATQPQETQGPPARPITVQPTEAWPRTSQGPSTRPVEVPGGRAVAAILGLGLVLGLLGPLAILLALYLLRRDQRLPPDAHKPPGGGSFRTPIQEEQADAHSTLAKI
B8: BARX1, Q9HBU1 (protein)
chain: MQRPGEPGAARFGPPEGCADHRPHRYRSFMIEEILTEPPGPKGAAPAAAAAAAGELLKFGVQALLAARPFHSHLAVLKAEQAAVFKFPLAPLGCSGLSSALLAAGPGLPGAAGAPHLPLELQLRGKLEAAGPGEPGTKAKKGRRSRTVFTELQLMGLEKRFEKQKYLSTPDRIDLAESLGLSQLQVKTWYQNRRMKWKKIVLQGGGLESPTKPKGRPKKNSIPTSEQLTEQERAKDAEKPAEVPGEPSDRSRED
B9: CEBPB, P17676 (protein)
chain: MQRLVAWDPACLPLPPPPPAFKSMEVANFYYEADCLAAAYGGKAAPAAPPAARPGPRPPAGELGSIGDHERAIDFSPYLEPLGAPQAPAPATATDTFEAAPPAPAPAPASSGQHHDFLSDLFSDDYGGKNCKKPAEYGYVSLGRLGAAKGALHPGCFAPLHPPPPPPPPPAELKAEPGFEPADCKRKEEAGAPGGGAGMAAGFPYALRAYLGYQAVPSGSSGSLSTSSSSSPPGTPSPADAKAPPTACYAGAAPAPSQVKSKAKKTVDKHSDEYKIRRERNNIAVRKSRDKAKMRNLETQHKVLELTAENERLQKKVEQLSRELSTLRNLFKQLPEPLLASSGHC
B10: GZF1, Q9H116 (protein)
chain: MESGAVLLESKSSPFNLLHEMHELRLLGHLCDVTVSVEYQGVRKDFMAHKAVLAATSKFFKEVFLNEKSVDGTRTNVYLNEVQVADFASFLEFVYTAKVQVEEDRVQRMLEVAEKLKCLDLSETCFQLKKQMLESVLLELQNFSESQEVEVSSGSQVSAAPAPRASVATDGPHPSGLTDSLDYPGERASNGMSSDLPPKKSKDKLDKKKEVVKPPYPKIRRASGRLAGRKVFVEIPKKKYTRRLREQQKTAEGDVGDYRCPQDQSPDRVGTEMEQVSKNEGCQAGAELEELSKKAGPEEEEEEEEEDEEGEKKKSNFKCSICEKAFLYEKSFLKHSKHRHGVATEVVYRCDTCGQTFANRCNLKSHQRHVHSSERHFPCELCGKKFKRKKDVKRHVLQVHEGGGERHRCGQCGKGLSSKTALRLHERTHTGDRPYGCTECGARFSQPSALKTHMRIHTGEKPFVCDECGARFTQNHMLIYHKRCHTGERPFMCETCGKSFASKEYLKHHNRIHTGSKPFKCEVCFRTFAQRNSLYQHIKVHTGERPYCCDQCGKQFTQLNALQRHRRIHTGERPFMCNACGRTFTDKSTLRRHTSIHDKNTPWKSFLVIVDGSPKNDDGHKTEQPDEEYVSSKLSDKLLSFAENGHFHNLAAVQDTVPTMQENSSADTACKADDSVVSQDTLLATTISELSELTPQTDSMPTQLHSLSNME
B11: ZNF83, P51522 (protein)
chain: MHGRKDDAQKQPVKNQLGLNPQSHLPELQLFQAEGKIYKYDHMEKSVNSSSLVSPPQRISSTVKTHISHTYECNFVDSLFTQKEKANIGTEHYKCSERGKAFHQGLHFTIHQIIHTKETQFKCDICGKIFNKKSNLASHQRIHTGEKPYKCNECGKVFHNMSHLAQHRRIHTGEKPYKCNECGKVFNQISHLAQHQRIHTGEKPYKCNECGKVFHQISHLAQHRTIHTGEKPYECNKCGKVFSRNSYLVQHLIIHTGEKPYRCNVCGKVFHHISHLAQHQRIHTGEKPYKCNECGKVFSHKSSLVNHWRIHTGEKPYKCNECGKVFSHKSSLVNHWRIHTGEKPYKCNECGKVFSRNSYLAQHLIIHAGEKPYKCDECDKAFSQNSHLVQHHRIHTGEKPYKCDECGKVFSQNSYLAYHWRIHTGEKAYKCNECGKVFGLNSSLAHHRKIHTGEKPFKCNECGKAFSMRSSLTNHHAIHTGEKHFKCNECGKLFRDNSYLVRHQRFHAGKKSNTCN
B12: GATAD2A, Q86YP4 (protein)
chain: MTEEACRTRSQKRALERDPTEDDVESKKIKMERGLLASDLNTDGDMRVTPEPGAGPTQGLLRATEATAMAMGRGEGLVGDGPVDMRTSHSDMKSERRPPSPDVIVLSDNEQPSSPRVNGLTTVALKETSTEALMKSSPEERERMIKQLKEELRLEEAKLVLLKKLRQSQIQKEATAQKPTGSVGSTVTTPPPLVRGTQNIPAGKPSLQTSSARMPGSVIPPPLVRGGQQASSKLGPQASSQVVMPPLVRGAQQIHSIRQHSSTGPPPLLLAPRASVPSVQIQGQRIIQQGLIRVANVPNTSLLVNIPQPTPASLKGTTATSAQANSTPTSVASVVTSAESPASRQAAAKLALRKQLEKTLLEIPPPKPPAPEMNFLPSAANNEFIYLVGLEEVVQNLLETQGRMSAATVLSREPYMCAQCKTDFTCRWREEKSGAIMCENCMTTNQKKALKVEHTSRLKAAFVKALQQEQEIEQRLLQQGTAPAQAKAEPTAAPHPVLKQVIKPRRKLAFRSGEARDWSNGAVLQASSQLSRGSATTPRGVLHTFSPSPKLQNSASATALVSRTGRHSERTVSAGKGSATSNWKKTPLSTGGTLAFVSPSLAVHKSSSAVDRQREYLLDMIPPRSIPQSATWK

Each binder was assayed against nucleoprotein N of Crimean-Congo hemorrhagic fever virus (assay: AlphaScreen luminescence signal relative to Venus negative control (fold); higher = stronger binding to CCHFV N).
Method: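 AlphaScreen binding of cell-free made, FLAG-GST-tagged human transcription factors and regulators (crude translation products) to biotinylated N protein; signal as fold of the FLAG-GST-Venus control. One pass.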

Row | Binder | AlphaScreen luminescence signal
1 | B1 | 1.02
2 | B2 | 2.05
3 | B3 | 60.6
4 | B4 | 1.77
5 | B5 | 2.47
6 | B6 | 1.44
7 | B7 | 1.86
8 | B8 | 3.26
9 | B9 | 1.16
10 | B10 | 5.02
11 | B11 | 3.3
12 | B12 | 2.09
